According to PubChem BioAssay AID488969 (Vanderbilt High Throughput Screening Facility, 2010):
Whole data set: some 110,000 compounds, median “z-score” near -0.1, cut for the highest 2% near 2. Some of the results follow. Calls of active or inactive are those of the source.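 The calls were made as follows: active = z-score in the third read window above 3 or below -3; inactive = the rest.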

molecular target: Metabotropic glutamate receptor 8 (Rattus norvegicus) (UniProt P70579); assay: mGluR8 Gi/Go-coupled signaling modulation – cell-based, rat, thallium flux, HTS, primary screen (AID 488969); conditions: HEK293 rat mGluR8, GIRK (G protein-gated inwardly rectifying potassium channel) thallium flux, FluoZin2; at 10 µM; stronger effect = higher value; submaximal glutamate (EC20) added with thallium
Sequence of UniProt P70579 (P70579 whole entry, looked up): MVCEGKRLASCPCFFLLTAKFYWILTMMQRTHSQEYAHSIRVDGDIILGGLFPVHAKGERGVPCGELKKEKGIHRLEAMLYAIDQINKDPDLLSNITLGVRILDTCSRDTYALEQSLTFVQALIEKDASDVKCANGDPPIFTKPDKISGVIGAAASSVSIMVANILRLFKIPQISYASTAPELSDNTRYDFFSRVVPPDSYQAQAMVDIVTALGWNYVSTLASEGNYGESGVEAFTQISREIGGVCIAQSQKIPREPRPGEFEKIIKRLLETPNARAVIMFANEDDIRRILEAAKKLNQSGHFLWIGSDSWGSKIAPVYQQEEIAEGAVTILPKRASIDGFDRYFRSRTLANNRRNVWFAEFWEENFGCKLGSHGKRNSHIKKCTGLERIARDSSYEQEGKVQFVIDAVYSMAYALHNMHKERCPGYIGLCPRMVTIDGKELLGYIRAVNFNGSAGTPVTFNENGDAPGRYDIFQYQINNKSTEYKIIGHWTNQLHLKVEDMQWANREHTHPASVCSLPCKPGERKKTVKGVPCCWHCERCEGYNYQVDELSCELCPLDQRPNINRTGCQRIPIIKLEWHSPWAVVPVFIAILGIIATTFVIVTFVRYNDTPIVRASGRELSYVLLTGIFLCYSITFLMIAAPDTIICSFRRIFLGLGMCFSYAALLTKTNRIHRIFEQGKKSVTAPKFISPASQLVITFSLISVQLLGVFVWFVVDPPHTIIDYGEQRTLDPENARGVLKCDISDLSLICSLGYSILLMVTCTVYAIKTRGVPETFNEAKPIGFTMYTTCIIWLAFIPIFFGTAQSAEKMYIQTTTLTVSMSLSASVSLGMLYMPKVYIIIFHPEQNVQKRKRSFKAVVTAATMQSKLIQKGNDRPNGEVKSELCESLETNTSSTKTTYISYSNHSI

| SMILES | z-score |
| --- | --- |
| COc1ccc(/C=c2\sc3nc(-c4ccccc4OC)nn3c2=O)c(OC)c1 | -0.0769 |
| COc1ccc(-c2noc(CN(C)S(=O)(=O)c3ccc(C)cc3)n2)cc1 | 0.0443 |
| CCOC(=O)C1=C(C)N(C)C(C)=C(C(=O)OCC)C1c1ccc(C(=O)OC)cc1 | -1.04 |
| O=C(NCCN1CCCCC1)c1ccco1 | 0.151 |
| COc1ccccc1-c1n[nH]c(=S)o1 | 0.0112 |
| CCn1c(SCc2nc(-c3ccccc3)no2)nnc1-c1cccs1 | 1.84 |
| CCC1OC2(C)OC(=N)C1(C#N)C(C#N)(C#N)C2c1ccccc1 (stereo not given) | 0.113 |
| CC(C)c1ccc(OC(=O)NCCO)cc1 | -0.0747 |
| CCCCN(C(=O)CN1C(=O)C2CC=CCC2C1=O)c1c(N)n(CCC)c(=O)[nH]c1=O (stereo not given) | 0.136 |
| CC1=C(C(=O)Nc2ccc(F)c(F)c2)C(c2cccs2)NC(=S)N1 (stereo not given) | 0.000835 |
| O=C(CN1CCCc2ccccc21)N/N=C/c1ccccc1O | 1.65 |
| COc1ccc(S(=O)(=O)NC(C(C)C)C(C)C)cc1OC | 0.101 |
| O=S(=O)(/N=C(/Nc1ccc(F)cc1F)c1ccccc1)c1ccccc1 | -0.416 |
| CCn1ncc(CNC(=O)c2cccc([N+](=O)[O-])c2)c1C | 0.262 |
| CCCNS(=O)(=O)c1ccc(OCC(=O)Nc2ccc3c(c2)OCCO3)cc1 | -0.104 |
| CCC(=O)Nc1nc2n(n1)C(c1ccc(OC)cc1)C=C(c1ccccc1)N2 (stereo not given) | -1.32 |
| CC(C)c1ccc(N2CCN(C(=O)c3ccccc3NC(=O)/C=C(\C(=O)O)c3ccccc3)CC2)cc1 | 0.109 |
| CC1CCC(NC(=O)c2ccc(S(C)(=O)=O)cc2)CC1 (stereo not given) | -0.338 |
| Cc1ccc(NC(=O)CS(=O)CC(=O)N(C2CCCC2)C(C)C(=O)NC2CCCCC2)cc1 (stereo not given) | 0.257 |
| CCN(CC)c1ncnc2ccc(Br)cc12 | -0.899 |
| CCOC(=O)c1cc2ccc(OC)c(OC)c2c(=O)s1 | -0.429 |
| Cc1cc(-c2ccccc2)nc(N2CCN(c3ccccn3)CC2)n1 | 0.785 |
| C/C(=N\NC(=O)Cn1nc(C)c(Br)c1C)c1cccs1 | 0.0221 |
| O=C(CSc1nc(-c2ccccc2)nc2ccccc12)Nc1nccs1 | -0.148 |

| SMILES | z-score |
| --- | --- |
| COc1ccc(Br)cc1CNC(=O)CCc1nc(-c2ccc(C)cc2)no1 | 0.0151 |
| Cc1ccc(NC(=S)N2CCN(C3CCCCC3)CC2)cc1 | -0.155 |
| Cc1cc(NCc2ccccn2)ccc1Br | -0.0909 |
| C=CCc1cc(Cl)ccc1OCCN(C)C | -0.0592 |
| COc1ccc2cc(CN(CC3CCCO3)S(=O)(=O)c3ccc(C(C)=O)cc3)c(=O)[nH]c2c1 (stereo not given) | -0.218 |
| Cc1cnc(NC(=O)C2COc3ccccc3O2)s1 (stereo not given) | 0.05 |
| Cc1noc(C)c1COC(=O)C1COc2ccccc2O1 (stereo not given) | -1.17 |
| Cc1ccnc2nc(C(=O)Nc3cc(Cl)ccc3N3CCOCC3)nn12 | -0.144 |
| CCCN1C(=O)/C(=C/c2cc(C)n(C)c2C)SC1=Nc1ccc(OCC)cc1 | -0.0737 |
| Cc1cc(Br)ccc1OCC(=O)NNC(=O)c1ccc(NC(=O)C2CC2)cc1 | 0.1 |
| CC(/C=C1\SC(=S)N(NC(=O)c2ccc(O)cc2)C1=O)=C\c1ccccc1 | 1.8 |
| O=C(/C=C/Nc1ccccc1C(=O)O)c1cccs1 | -0.746 |
| CCSc1nncn1/N=C/c1ccc(OC)c(OC)c1 | -0.193 |
| Cc1cccc(NC(=O)CS(=O)(=O)c2c[nH]c3ccccc23)c1C | 0.0768 |
| CCOC(=O)N1CCC(n2c(=S)[nH]c3ccccc3c2=O)CC1 | 0.582 |
| Cc1nn(CC(=O)Nc2cc(S(=O)(=O)N(C)C)ccc2Cl)c(C)c1[N+](=O)[O-] | 0.164 |
| COc1ccc(Cl)cc1S(=O)(=O)NCc1cccnc1 | -0.272 |
| COc1ccc(C(=O)NN2C(=O)C3C(c4ccccc4)C=CC(c4ccccc4)C3C2=O)cc1 (stereo not given) | 0.257 |
| CCC(SC1=N/C(=C/c2ccccc2)C(=O)N1c1ccccc1)C(=O)Nc1cc(C)on1 (stereo not given) | 0.368 |
| CCc1ccc(CC2S/C(=C(\C#N)C(C)=O)NC2=O)cc1 (stereo not given) | 0.0174 |
| COCCCNC(=S)NC1CCCCC1 | -0.306 |
| Cc1cccc(-n2cnc3cc(C(=O)N4CCc5ccccc54)ccc32)c1 | -0.779 |
| Cn1cccc1/C=N/n1c(-c2ccc(Cl)cc2Cl)n[nH]c1=S | 2.46 |
| CC(=O)c1ccc(N2CCN(C(=S)Nc3cc(C)ccc3C)CC2)cc1 | -0.28 |

| SMILES | z-score |
| --- | --- |
| O=C(N/N=C/c1cccc([N+](=O)[O-])c1)C1CC(=O)N(c2ccc(Cl)cc2)C1 (stereo not given) | -0.21 |
| COc1ccc(S(=O)(=O)N(CCc2ccccc2)CC(=O)O)cc1 | 2.73 |
| O=C(CS(=O)(=O)c1cccc(C(F)(F)F)c1)Nc1ccccc1Cl | -0.0983 |
| COc1ccc(N2CCC(CNC(=O)Nc3ccc(OC)cc3OC)C2)cc1 (stereo not given) | -0.293 |
| COc1ccc(C=O)cc1OS(=O)(=O)c1ccccc1[N+](=O)[O-] | -1.43 |
| COc1cc(C(=O)CCN2CCC(c3ccccc3)C2)cc(OC)c1OC (stereo not given) | 0.0939 |
| CCOc1cc(/C=C2\N=C(SCC)SC2=O)cc([N+](=O)[O-])c1OC(C)=O | 1.03 |
| O=C(Nc1c2c(nc3ccccc13)CCCC2)c1ccccc1Br | 0.168 |
| COc1ccc(-c2nn(-c3ccccc3)cc2C(=O)O)cc1 | 0.313 |
| Cc1cc2cc(CN(CC3CCCO3)C(=S)NCc3ccco3)c(=O)[nH]c2cc1C (stereo not given) | -0.0378 |
| CCc1ccc(S(=O)(=O)NCc2cn3ccccc3n2)s1 | 0.184 |
| O=c1oc(Nc2ccccc2F)nc2ccccc12 | -0.476 |
| CN(C)CCNC(=O)CNC(=S)N(Cc1ccccc1)Cc1cccnc1 | 0.013 |
| O=C(CN(c1ccccc1)S(=O)(=O)c1ccccc1[N+](=O)[O-])NN=C1CCCCCCC1 | -0.494 |
| O=C1OCCC1Sc1nc2ccccc2n1Cc1ccccc1 (stereo not given) | -1.37 |
| CCn1c(SCC(=O)N2CCCCC2)nnc1-c1ccc(S(=O)(=O)N2CCN(C)CC2)cc1 | -0.0299 |
| CCNC(=S)N/N=C1\C(=O)c2cccc3cccc1c23 | active: 12.9 |
| CCCCc1cc(=O)oc2cc(OCC(=O)N3CCc4ccccc43)ccc12 | -0.409 |
| CCCC(=O)Nc1ccc(N2CCN(C(=O)c3cccs3)CC2)cc1 | 0.0313 |
| COc1ccc(OC)c(C2C(C(=O)O)c3ccccc3C(=O)N2C)c1 (stereo not given) | 0.356 |
| CCCc1cc(=O)[nH]c(SCC(=O)N(CC)Cc2ccccc2)n1 | -1 |
| CCOC(=O)C1=C(CN2CCc3ccccc32)NC(=O)NC1c1ccc(Cl)cc1 (stereo not given) | 0.26 |
